Experimental data as given in a collection of fitness landscapes (doi:10.1126/science.1257360).
Some of the results follow.

B1: PhoQ; a variant is named by its letters at X, in order, P23837 (parent)
chain: MKKLLRLFFPLSLRVRFLLATAAVVLVLSLAYGMVALIGYSVSFDKTTFRLLRGESNLFYTLAKWENNKLHVELPENIDKQSPTMTLIYDENGQLLWAQRDVPWLMKMIQPDWLKSNGFHEIEADVNDTSLLLSGDHSIQQQLQEVREDDDDAEMTHSVAVNVYPATSRMPKLTIVVVDTIPVELKSSYMVWSWFIYVLSANLLLVIPLLWVAAWWSLRPIEALAKEVRELEEHNRELLNPATTRELTSLVRNLNRLLKSERERYDKYRTTLTDLTHSLKTPLXXLQXXLRSLRSEKMSVSDAEPVMLEQISRISQQIGYYLHRASMRGGTLLSRELHPVAPLLDNLTSALNKVYQRKGVNISLDISPEISFVGEQNDFVEVMGNVLDNACKYCLEFVEISARQTDEHLYIVVEDDGPGIPLSKREVIFDRGQRVDTLRPGQGVGLAVAREITEQYEGKIVAGESMLGGARMEVIFGRQHSAPKDE

Variants of: B1
Assay: enrichment ratio after two sorts for PhoP signalling (ratio (wild type AVST 3.29)); higher = more functional
Conditions: with PhoP (E. coli)

Row | Variant | enrichment ratio
1 | QRAY | ≤ 0.25
2 | HMLS | ≤ 0.25
3 | WQDV | ≤ 0.25
4 | QYNV | ≤ 0.25
5 | HYVG | ≤ 0.25
6 | QTEF | ≤ 0.25
7 | EITR | ≤ 0.25
8 | NSPL | ≤ 0.25
9 | IGQG | ≤ 0.25
10 | HMWY | ≤ 0.25
11 | VTCI | 1.04
12 | ATRG | ≤ 0.25
13 | RLLE | 0.261
14 | FWTC | ≤ 0.25
15 | RNER | ≤ 0.25
16 | HSKQ | ≤ 0.25
17 | QYRE | ≤ 0.25
18 | HTHP | ≤ 0.25
19 | YTAV | ≤ 0.25
20 | DKVC | ≤ 0.25
21 | LRML | ≤ 0.25

Row | Variant | enrichment ratio
22 | KKTK | ≤ 0.25
23 | INLQ | ≤ 0.25
24 | AYPF | ≤ 0.25
25 | TNYT | ≤ 0.25
26 | EASN | ≤ 0.25
27 | SPQY | ≤ 0.25
28 | NPIS | ≤ 0.25
29 | KPKF | ≤ 0.25
30 | HPSV | ≤ 0.25
31 | DSWT | ≤ 0.25
32 | PNGL | ≤ 0.25
33 | YNFH | ≤ 0.25
34 | MMWQ | ≤ 0.25
35 | AENN | ≤ 0.25
36 | PGPI | ≤ 0.25
37 | PWSV | ≤ 0.25
38 | YGGE | ≤ 0.25
39 | MMVK | ≤ 0.25
40 | DIVL | ≤ 0.25
41 | RWAS | ≤ 0.25
42 | EPFT | ≤ 0.25

Row | Variant | enrichment ratio
43 | TAKQ | ≤ 0.25
44 | NVRG | ≤ 0.25
45 | HIWY | ≤ 0.25
46 | RQGE | ≤ 0.25
47 | VCLF | 0.991
48 | KKSN | ≤ 0.25
49 | VVQR | ≤ 0.25
50 | NSNF | ≤ 0.25
51 | WIGW | ≤ 0.25
52 | YICH | ≤ 0.25
53 | WCHA | ≤ 0.25
54 | FNFD | ≤ 0.25
55 | IPDH | ≤ 0.25
56 | LDGW | ≤ 0.25
57 | IVWH | ≤ 0.25
58 | VHHF | ≤ 0.25
59 | ITGE | ≤ 0.25
60 | QEVG | ≤ 0.25
61 | QDQY | ≤ 0.25
62 | LCEM | ≤ 0.25
63 | FCWW | ≤ 0.25

Row | Variant | enrichment ratio
64 | WKIR | ≤ 0.25
65 | DWSK | ≤ 0.25
66 | DWTG | ≤ 0.25
67 | SNEA | ≤ 0.25
68 | RTPE | ≤ 0.25
69 | KPRP | ≤ 0.25
70 | EFDQ | ≤ 0.25
71 | FTWM | ≤ 0.25
72 | MGAR | ≤ 0.25
73 | PVKR | ≤ 0.25
74 | IGQE | ≤ 0.25
75 | TYRA | ≤ 0.25
76 | ELGA | ≤ 0.25
77 | ATCQ | 3.89
78 | STKS | ≤ 0.25
79 | SGWI | 2.76
80 | QNPC | ≤ 0.25
81 | CPPL | ≤ 0.25
82 | ADNH | ≤ 0.25
83 | REIY | ≤ 0.25
84 | APDT | ≤ 0.25
